Experimental data as given in the supplement of paper PMC10126150.
Values marked as one replicate rest on one cluster of the flow cell; about a third of the high ones do not repeat.

Tested on: ATP
Experiment: switch fluorescence ratio, 500 uM ATP over buffer (Cy3 cluster intensity, sum of 5 cycles each) (fold (ratio)); higher = stronger signal-on switching upon ATP binding; sequences stand for … in TCGTCGGCAGCGTCAGATGTGTATAAGAGACAGTTTTTTTTTTTTTTTTTTTTTTTTT…TC
Details: aptamer strand: ATP DNA aptamer (quencher-CACCTGGGGGAGTATTGCGGAGGAAGG + anchor), 100 nM annealed; ATP concentration: 500 uM; one replicate
Summary of the method: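 Imaging in selection buffer was followed by imaging after 15 min with 500 uM ATP at 22 °C, for Cy3-labelled switching-strand clusters annealed to 100 nM quencher-labelled ATP aptamer on a modified Illumina MiSeq flow-cell. Five of these buffer/ATP cycles ran, separated by NaOH stripping and re-annealing. The fluorescence ratio per cluster is summed target-cycle over summed buffer-cycle Cy3 intensity, averaged per switch-domain sequence; clusters outside 100-1000 RFU were removed.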
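Further: ATP exposure 15 min at 22 °C before imaging.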

Row | Sequence | switch fluorescence ratio
1 | GCATTGAATA | 0.956
2 | GATTATCCAG | 1.01
3 | CATCGGCCTA | 1.11
4 | TAACAAACGT | 1.25
5 | GTAAGAGACT | 1.03
6 | GCAACTGAGT | 1.02
7 | AAGTACTCTA | 1.22
8 | GCTTGATAAT | 1.03
9 | CGACGGAATG | 1.85
10 | GGTATACCAA | 1.04
11 | TCTGGTGAGT | 0.989
12 | GGTCGACGT | 1.05
13 | GGGGGCTCT | 1.05
14 | GATATTTCTA | 0.993
15 | AACATATAAA | 0.964
16 | CTGCCGCTAG | 3.44
17 | CTCCTGCTTA | 1.75
18 | GGTTCACGTG | 1
19 | GCTCGTTGGC | 1
20 | TTTACTTAAA | 0.991
21 | GGGGCGGGAC | 0.995
22 | GGACGCCTGA | 1.1
23 | TCCGGCCGG | 0.988

Row | Sequence | switch fluorescence ratio
24 | CCAAAGGAAC | 1.07
25 | GCGTATAGTC | 1.02
26 | CACTGTACCC | 1.41
27 | TATGAAAAGG | 0.994
28 | ACGGCAGCAA | 1.66
29 | GGTTCACAAT | 1.02
30 | GGTGGCGGG | 1.02
31 | AGAACCCCGG | 1
32 | GACCATCGTA | 1.02
33 | GGCTAGGC | 0.982
34 | CGTTCGCGTC | 1.13
35 | TCGGCCGTCA | 1.03
36 | TGATACGCTT | 1.09
37 | GAGATCACAA | 1.03
38 | AATACCGTTA | 1.03
39 | CTAGGCCGG | 1.03
40 | TTAAGTATCT | 1.05
41 | CCCAATAGGT | 1.12
42 | AAAGAATTGT | 0.981
43 | ACATACGCTC | 1.35
44 | TCGTATCCGG | 1.02
45 | ACTAAAAGAG | 0.997
46 | GAGCATGT | 1.03

Row | Sequence | switch fluorescence ratio
47 | AAATTGTGCA | 1.04
48 | TGAATAAAAC | 1.03
49 | AGGGCGTCCC | 1.01
50 | AAGTCGTAGG | 0.965
51 | ATGTACTCTA | 1.15
52 | AAAGGTTG | 0.985
53 | TCTAGATACC | 1.01
54 | CCATGGATCC | 1
55 | AGTAAGACGC | 0.992
56 | CGGCGGTGAG | 0.982
57 | TACAATCCGC | 1.09
58 | CAGGAACGGG | 0.98
59 | CGCAGAACTG | 1.11
60 | CGATGCAGTG | 1.16
61 | TTGCGGTCTG | 0.992
62 | AAAAGAGTAG | 0.974
63 | TCAGTCGGAC | 0.997
64 | GCCTACAAAG | 0.973
65 | TTGGGACCCT | 0.989
66 | TAGGAATGGT | 1.03
67 | GATTCTAAGA | 1.02
68 | GGGTCTAGTT | 1.03
69 | AGTCAACTCA | 1

Row | Sequence | switch fluorescence ratio
70 | TACATATTGG | 1.06
71 | AAAAGATTCA | 1.14
72 | GGACCAAAAA | 1.06
73 | CGTAAGGTCT | 1.03
74 | CGTCATTCGA | 0.956
75 | TCTATGGCGT | 0.992
76 | TCACGTGGAT | 0.999
77 | TTCTATGGGC | 1.04
78 | GGAATTATG | 0.949
79 | ATTAGTCCGT | 1.01
80 | TGCGTACGTG | 0.99
81 | CAATGCGGGT | 0.967
82 | CGTAGCCTGT | 0.979
83 | CAGATTGGAC | 0.975
84 | TCTCACTTG | 1.02
85 | GTAGTAAACA | 1.05
86 | TCGTCGAGTA | 0.992
87 | ACTAGTGCAT | 1.04
88 | TCAAGGTTGT | 0.986
89 | TGATGGAGTG | 1.01
90 | AACTTGTGAC | 1.07
91 | GGATAGAAAG | 0.971
92 | ATGGCATAAT | 0.983

Row | Sequence | switch fluorescence ratio
93 | AATAGTTATG | 0.993
94 | CAAGTAAT | 1.57
95 | ACTACGGTTG | 1.04
96 | GATACTTAGC | 0.993
97 | GCGAATAGGT | 0.982
98 | GACGGTTCAA | 1.02
99 | TCAGCACGTT | 0.988
100 | GGAGTGCAAT | 1.16
101 | CGGGTCATTA | 1.01
102 | TTGACATCCG | 1.03
103 | TTAATGAAGT | 0.985
104 | GCTAGTGCAA | 1.04
105 | GAATATTATT | 0.993
106 | TGACATATC | 1.01
107 | TTTTGGAACC | 0.958
108 | ATTTATTGTT | 0.997
109 | TGGTTCTGTA | 0.996
110 | CAGTGACGTC | 1.03
111 | GTGAGTACAG | 1.03
112 | CCAGTCGTTT | 1.01
113 | TAGTGAGTTT | 1.02
114 | TACCTCTC | 1.03
115 | GTCAAATTGA | 1.04

Row | Sequence | switch fluorescence ratio
116 | ATAATGATAG | 0.971
117 | CAGGAAAGTG | 0.957
118 | TCGCAGTTCG | 1.13
119 | TTGGATTATA | 1.01
120 | ACATATTAAG | 0.988
121 | CACGATGAGG | 1.03
122 | CCATAGTCTG | 1.08
123 | GATCCCGGGA | 0.975
124 | TGGTGTAGCT | 1.12
125 | CCGGGGGAA | 1.03
126 | GCGATTGAAA | 1.08
127 | AACGTTGTGT | 1
128 | TATGGCGATT | 1.77
129 | CTGGAGCCGC | 1.97
130 | ATGCTTCCAC | 1.06
131 | CTGTTCTCA | 1.02
132 | TCACTTACGA | 1.4
133 | CAATCATGAG | 0.991
134 | TACCTTGTGC | 1.03
135 | GGCAGGGTTC | 0.976
136 | TAGATTACG | 1.01
137 | GGCGTGCGGC | 1.05
138 | TCATACGGGA | 1.25

Row | Sequence | switch fluorescence ratio
139 | GAGCGCCA | 0.994
140 | ATAAAGGAAA | 0.986
141 | AGAAGCGTGC | 1.04
142 | AACGTAGACC | 1.08
143 | TATTAACGGT | 0.992
144 | TAGTCAGACA | 0.959
145 | CGGTGTAGTG | 0.999
146 | AACCATTCCA | 1.02
147 | CAGGGTGTTA | 0.993
148 | GCATGGCCTC | 1.05
149 | TTTATATAGG | 1.12
150 | GACCTTCGT | 1.4
151 | CGTCGGTGGT | 0.943
152 | TAGACTTGCT | 0.992
153 | CTCGATAACG | 0.922
154 | TAAGACCTAC | 1.22
155 | CGACCCGAGT | 1.01
156 | CTAAGGGACG | 1.05
157 | TTCTGTTATG | 1.05
158 | CAGTCAAATC | 1.11
